Consider 167 variants from the RNAGym collection of RNA variant scans (doi:10.7554/elife.90254).

Read counts are not given, so values of variants with three or more changes are uncertain.

B1: LINE1-mini (parent)
chain: GGCAGAGCUCAACACAGCGUGGCAAAGUGGCUGUGGCUAGACUGCC

This data set covers variants of B1. The data set can be described thus: self-cleavage, relative activity (ratio to wild type); higher = more cleavage; in vitro, sequencing; the parent is a self-cleaving ribozyme.
Take U9G G30A C46U: the self-cleavage was 0.06.

Regarding C10A A11G C18G, the self-cleavage amounted to 0.02.

On to C10A A11G C18A, for which the self-cleavage was 0.01.

On to C10A C13U A14G U32G C42A, for which the self-cleavage was 0.04.

U9G G29A A39C G44C: the self-cleavage is 0.02.

On to C10A A16G G17C C31G, for which the self-cleavage was found to be 0.02.

Turning to U9G G21U A26C, the self-cleavage amounted to 0.05.

In the case of U9G G21U A26U, the self-cleavage stood at 0.06.

With C10A A41C C42U, the self-cleavage stood at 0.01.

In the case of U9G C31G U43A, the self-cleavage was 0.07.

As to C10A A12U A16G G17U G22U, the self-cleavage worked out at 0.02.

Consider C10A A12C G21U U43A, for which the self-cleavage was determined as 0.03.

With U9G C23A G40U C42G, the self-cleavage amounted to 0.04.

With C10A C13G G22C C31U C46A, the self-cleavage was 0.02.

As to C10A A11U C15U G30A, the self-cleavage came out at 0.02.

Take U9G C15A G21U G30U C31G U34C C45G: the self-cleavage was found to be 0.01.

With C10A A11G C46A, the self-cleavage was 0.02.

Regarding C10A C13A G29U, the self-cleavage was found to be 0.01.

On to C10A A14C U32C G33U A41U, for which the self-cleavage was 0.01.

Regarding U9G G33U U34A, the self-cleavage was found to be 0.03.

As for C10A A16C G21U C37G, the self-cleavage amounted to 0.02.

As for C10A A16G G19U G22U G40C, the self-cleavage turned out to be 0.

As for C10A C13A G36C, the self-cleavage worked out at 0.02.

Regarding C10A A26C C46A, the self-cleavage came to 0.03.

For the variant C10A A11U C18A C23A A25G U34C C42U, the self-cleavage is 0.

For the variant U9G G36A A39U, the self-cleavage amounted to 0.15.

On to U9G U20A G21A G33U G36C, for which the self-cleavage amounted to 0.01.

C10A A14C U28C C42U C45G: the self-cleavage turned out to be 0.01.

Turning to C10A A11U U28A G33A G35U C37U, the self-cleavage amounted to 0.01.

As to U9G G22U U34A C46U, the self-cleavage came out at 0.12.

Regarding C10A A12C U20A G27A, the self-cleavage was 0.04.

C10A A12G C15U A16C: the self-cleavage is 0.02.

On to C10A A12G U20C U38C, for which the self-cleavage was 0.01.

As for C10A A16U G30A C46A, the self-cleavage came to 0.02.

Turning to C10A A12C U20C C23U G40C C45A, the self-cleavage was found to be 0.01.

On to C10A A11G C13A G17U A25U, for which the self-cleavage was found to be 0.02.

For U9G C15U A26U, the self-cleavage was found to be 0.16.

With C10A C13A U28C G36C, the self-cleavage turned out to be 0.01.

Consider U9G U20G U34A C45A, for which the self-cleavage stood at 0.04.

Turning to U9G U43G G44C C45G, the self-cleavage turned out to be 0.04.

For the variant U9G G21U A39G, the self-cleavage was 0.02.

With C10A A25C G35U A41U U43A, the self-cleavage worked out at 0.02.

In the case of U9G U20G G33A, the self-cleavage was 0.01.

Take U9G G17U G27A G30C G36C U43G: the self-cleavage worked out at 0.

With U9G G17A G22C A24C A26C G29C G33U G35C U38A, the self-cleavage came to 0.

In the case of U9G C10U A26U, the self-cleavage came out at 0.07.

In the case of C10A A16U A24U, the self-cleavage is 0.03.

Regarding C10A A12C U20G, the self-cleavage came out at 0.03.

For U9G G21A G22A C23U, the self-cleavage was determined as 0.1.

With C10A C13A C15A G35U, the self-cleavage came out at 0.03.

Turning to U9G C15U C18A G27C A41U, the self-cleavage turned out to be 0.05.

On to C10A C13A C18G, for which the self-cleavage is 0.03.

Take U9G G27A C31U C37A: the self-cleavage was determined as 0.06.

For C10A A25G G36U, the self-cleavage was found to be 0.

In the case of U9G G35U G40C G44C, the self-cleavage came to 0.03.

In the case of C10A A11U C15U C31G A39G, the self-cleavage amounted to 0.02.

Regarding U9G C13A A25C G36A, the self-cleavage was found to be 0.46.

With U9G C13U C37U U43A, the self-cleavage was found to be 0.01.

Consider U9G G35A G36C, for which the self-cleavage was found to be 0.04.

Take C10A A25U A26U: the self-cleavage amounted to 0.03.

C10A A11G A26C A41C: the self-cleavage was 0.02.

In the case of C10A A16C U28C G44C, the self-cleavage came out at 0.01.

Turning to C10A A26G C31G, the self-cleavage was determined as 0.03.

For the variant U9G C15A G21U, the self-cleavage stood at 0.01.

In the case of C10A A11G G22A A26U A41U, the self-cleavage came out at 0.01.

Take U9G C15A U28C C42A: the self-cleavage came to 0.04.

As to C10A A24G A41C C45U, the self-cleavage was 0.

As for C10A A12U C46A, the self-cleavage stood at 0.02.

U9G C23G A24G G30A U34G: the self-cleavage turned out to be 0.17.

With C10A A14U U20C G36U U38C, the self-cleavage was determined as 0.05.

With U9G U20C C31U C37A, the self-cleavage is 0.

On to U9G C23U A39G, for which the self-cleavage is 0.04.

Take C10A A11U G33U C37A C45U: the self-cleavage was 0.01.

Take U9G G21A G27C C37U A41U C45A: the self-cleavage was 0.04.

As for C10A A26U C31A, the self-cleavage was determined as 0.02.

On to U9G C15U G30C U38C, for which the self-cleavage came out at 0.01.

Take C10A A12C G29A C31U: the self-cleavage was determined as 0.02.

On to U9G G17A G44A, for which the self-cleavage amounted to 0.06.

As for C10A A41G C42A, the self-cleavage was 0.02.

As for C10A A26U G33U A41G, the self-cleavage amounted to 0.01.

In the case of C10A A12U A24U A39U, the self-cleavage was 0.05.

Take C10A C13A A39C A41C: the self-cleavage was 0.01.

C10A A12C A39G: the self-cleavage came to 0.04.

Take U9G G27C G33A G36U: the self-cleavage was determined as 0.03.

For C10A A11G G36A U38G, the self-cleavage is 0.02.

Consider U9G C10U C23U A24U G36C, for which the self-cleavage is 0.02.

Consider U9G G36U A39C, for which the self-cleavage was found to be 0.

With U9G C18G A26U G27C, the self-cleavage is 0.07.

As to U9G C18U G36A, the self-cleavage was determined as 0.2.

In the case of U9G G17U C37U C42G, the self-cleavage amounted to 0.02.

In the case of U9G C13G A16C G29C, the self-cleavage came out at 0.03.

Regarding U9G G17U G44A, the self-cleavage came to 0.06.

As for U9G C10U A26C G36U C37U, the self-cleavage was 0.01.

With U9G C13A G19C, the self-cleavage is 0.

Take C10A C13U C18A A26U C37U: the self-cleavage was found to be 0.01.

For the variant C10A A25G U43C, the self-cleavage is 0.01.

In the case of U9G G21C U43A C46A, the self-cleavage is 0.01.

In the case of C10A A24U U43A, the self-cleavage was 0.01.

In the case of C10A A24U G33C, the self-cleavage turned out to be 0.05.

As to U9G G22C G29A A39U, the self-cleavage was found to be 0.05.

In the case of U9G G30U G36U C45U, the self-cleavage is 0.02.

U9G G21A A39C C42U: the self-cleavage was 0.38.

As for C10A C13A G44C, the self-cleavage came out at 0.01.

Turning to C10A A12U C15U G22A, the self-cleavage turned out to be 0.01.

In the case of C10A A11U C13U C31U U43A G44A, the self-cleavage stood at 0.

With C10A A41G G44C, the self-cleavage was determined as 0.01.

For U9G C23G C45U, the self-cleavage was 0.08.

With C10A C13U G22A, the self-cleavage was 0.13.

Take U9G C15G G22C G36C: the self-cleavage is 0.02.

Turning to U9G G21C G40A C46A, the self-cleavage was 0.1.

On to C10A A24C A41G, for which the self-cleavage stood at 0.11.

On to C10A A14U C45G, for which the self-cleavage was found to be 0.02.

Regarding C10A A12C A14U A24G, the self-cleavage turned out to be 0.01.

On to C10A A25U G36C, for which the self-cleavage came out at 0.02.

With C10A A12C G30C, the self-cleavage was 0.01.

As for C10A A11G U43A, the self-cleavage is 0.02.

C10A A11G A25U: the self-cleavage is 0.03.

Consider U9G U20C G22U G40A, for which the self-cleavage was 0.01.

On to C10A A16G U32G C45G, for which the self-cleavage was 0.

C10A A12G G19A C46U: the self-cleavage worked out at 0.03.

Take C10A A12G G17A A26U A41U C45U: the self-cleavage turned out to be 0.02.

As to U9G C18A G19C, the self-cleavage amounted to 0.04.

Regarding U9G G17A U43A, the self-cleavage turned out to be 0.06.

C10A A12G G33C: the self-cleavage stood at 0.

Take U9G G33C C42G: the self-cleavage is 0.01.

In the case of U9G C18U A26U G27U G36U, the self-cleavage amounted to 0.14.

As for C10A A25C C42U, the self-cleavage came out at 0.04.

Take U9G U28A C37A A39C: the self-cleavage worked out at 0.02.

Take U9G G17U U32A C42U: the self-cleavage amounted to 0.03.

Take C10A C13G G36C: the self-cleavage was found to be 0.03.

Take C10A C13G G36U: the self-cleavage amounted to 0.01.

For U9G C13U A26G, the self-cleavage worked out at 0.27.

Consider U9G U28C C45U, for which the self-cleavage worked out at 0.08.

With C10A C13G U20A, the self-cleavage came out at 0.05.

With C10A C13G U20C, the self-cleavage was determined as 0.02.

Turning to C10A A11G A14U, the self-cleavage worked out at 0.07.

Regarding C10A A16U G40U C45G, the self-cleavage turned out to be 0.01.

With C10A A24G G27U, the self-cleavage amounted to 0.08.

Turning to C10A A26C G33U, the self-cleavage was found to be 0.

On to C10A A12C A25C, for which the self-cleavage worked out at 0.04.

For C10A A11C G21U, the self-cleavage came to 0.01.

Take C10A C13G A14C: the self-cleavage was 0.02.

Regarding U9G C37U U38G C42A, the self-cleavage came out at 0.04.

Regarding U9G G17U A24C U28G, the self-cleavage turned out to be 0.08.

Regarding U9G G21C G29C G44A, the self-cleavage came to 0.05.

Turning to U9G G29U G30A, the self-cleavage was 0.11.

Take C10A A14U U43C: the self-cleavage stood at 0.01.

For the variant C10A A14U U43A, the self-cleavage is 0.05.

With C10A A12G C15G G17U, the self-cleavage came out at 0.01.

In the case of C10A A16C C18A U34A, the self-cleavage is 0.04.

Turning to C10A A11C A26C, the self-cleavage was found to be 0.02.

With U9G C31U A39C, the self-cleavage was found to be 0.

Consider C10A C13A C18U G22A U43C, for which the self-cleavage turned out to be 0.

Consider U9G G17A C23G U28G G40C, for which the self-cleavage is 0.05.

In the case of U9G G22U A25C A39C, the self-cleavage is 0.01.

Take C10A A41C G44U C45G: the self-cleavage was determined as 0.05.

In the case of U9G G17U G36A, the self-cleavage was determined as 0.03.

For the variant C10A A24U A25C U32A G40C, the self-cleavage amounted to 0.

Regarding C10A A12U G27U U34C, the self-cleavage was determined as 0.02.

As to C10A A14C U34G G36A, the self-cleavage came to 0.

Take C10A A14C C15U G17U U43A: the self-cleavage is 0.01.

Take U9G G21U U28C G33A G36U U43A: the self-cleavage came to 0.01.

Take U9G C13U C31G A41U: the self-cleavage was 0.11.

For C10A A12C G21A, the self-cleavage worked out at 0.06.

On to U9G C15G G30A U38G, for which the self-cleavage is 0.

C10A A14G A26C G29A G35C G36U: the self-cleavage came to 0.12.

Turning to U9G C15U G35U A41U C42U, the self-cleavage turned out to be 0.13.
